Inconclusive means that the source gave no clear call. Such entries were picked first, then a sample of the others. Where the call is inconclusive, the potency comes from a doubtful curve fit. Active and inactive are the calls of the source. Calls come from the whole dose curve; as a rule, active = well fitted cell-killing curve with a large enough effect; inconclusive = small, poorly fitted or top-dose-only effect, or effect the other way; inactive = no such curve, though single readings can be large or run the other way.
What was measured:
[1] = Viability qHTS for spleen associated tyrosine kinase inhibitor (SYKi) naive MV4-11 cells (AID 1963823); details: MV4-11 AML viability, CellTiter-Glo luminescence, 72 h; viability (% of control): at 45 µM (top of the series); note: nearly all actives have a fitted effect of over 40% in size
Outline: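 Cells: MV4-11, SYK inhibitor naive, 500 per well. Treatment: library compounds, 72 hr, 37 C, 5% CO2. Read-out: CellTiter-Glo luminescence after 10 min RT.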

[2] = Viability qHTS for spleen associated tyrosine kinase inhibitor (SYKi) drug resistant MV4-11 cells (AID 1963824); details: SYKi-resistant MV4-11 viability, CellTiter-Glo, 72 h; series mostly up to 45 µM; note: nearly all actives have a fitted effect of over 35% in size
Outline: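 SYK inhibitor-resistant MV4-11 AML cells, 500 per well, added to predispensed compounds and incubated 72 hr at 37 C, 5% CO2. Viability measured by CellTiter-Glo luminescence after 10 min at room temperature.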
Potency is the fitted concentration of half-maximal effect; tags give direction and shape of the fitted curve.

| SMILES | Potency [1] | Potency [2] | viability (% of control) [1] | viability, % of control [2] |
| --- | --- | --- | --- | --- |
| O=C(O)C1CN(Cc2ccc(-c3nc4cc(Cc5ccccc5F)ccc4s3)c(F)c2)C1 | inconclusive: 3.35 µM [cytotoxic, partial curve, poor fit] | inconclusive: 0.0075 µM [cytotoxic, full curve, poor fit] | – | – |
| CC(=O)NC1C(OC(C)(C)C2CCC3(C)C=C(C4CCC5C4(C)CC(O)C4OC(C(C)(C)O)CCC45C)CCC3O2)OC(CO)C(O)C1O (stereo not drawn) | active: 1.93 µM | inconclusive: 6.85 µM [cytotoxic, partial curve] | – | – |
| O=C(O)/C(S)=C/c1ccc(I)cc1 | inactive | inactive | – | – |
| CC(C)NCCCn1c(Sc2cc3c(cc2I)OCO3)nc2c(N)ncnc21 | inconclusive: 0.103 µM [cytotoxic, full curve] | inconclusive: 0.231 µM [cytotoxic, full curve] | – | – |
| Oc1cccc2[nH]ccc12 | active: 5.31 µM | inconclusive: 13.3 µM [cytotoxic, partial curve, poor fit] | – | – |
| NC(Cc1c[nH]c2ccc(O)cc12)C(=O)O (stereo not drawn) | inconclusive: 13 µM [cytotoxic, partial curve] | inconclusive: 9.2 µM [cytotoxic, partial curve] | – | – |
| CC12CCC(OC3OC(CO)C(O)C(O)C3OC3OC(CO)C(O)C(O)C3O)CC1CCC1C2CCC2(C)/C(=C3/COC(=O)C3)CCC12O (stereo not drawn) | inconclusive: 6.11 µM [cytotoxic, single point] | inconclusive: 4.85 µM [cytotoxic, partial curve] | – | – |
| C[C@@H]1C[C@@H](O)[C@@]23CO[C@]2(CO)C[C@@H](O)CC3[C@@]12CC(c1ccoc1)OC2=O (stereo partly drawn) | inactive | inactive | – | – |
| C[C@@H]1C(=O)O[C@H]2[C@@H](O)C34[C@H]5C[C@@H](C(C)(C)C)C36[C@@H](OC(=O)[C@@H]6O)O[C@@]4(C(=O)O5)[C@@]12O (stereo partly drawn) | inactive | inactive | – | – |
| C=CCc1cc(OC)c(OC(C)C(O)c2ccc(O)c(OC)c2)c(OC)c1 (stereo not drawn) | inconclusive: 16.1 µM [cytotoxic, partial curve, poor fit] | inconclusive: 12.8 µM [cytotoxic, single point] | – | – |
| O=C(NCCCc1ccccc1)C1CCC(CNS(=O)(=O)c2cccc3nsnc23)CC1 (stereo not drawn) | inconclusive: 5.8 µM [cytotoxic, partial curve] | inconclusive: 6.51 µM [cytotoxic, partial curve] | – | – |
| C[C@H]1CC[C@@]2(OC1)O[C@H]1CC3C4CC[C@H]5C[C@@H](O)CC[C@]5(C)C4CC(=O)[C@]3(C)[C@H]1[C@@H]2C (stereo partly drawn) | inconclusive: 7.96 µM [cytotoxic, partial curve, poor fit] | inactive | – | – |
| COc1ccc2c(OC)c3ccoc3nc2c1OC | inconclusive: 29.1 µM [cytotoxic, single point] | inconclusive: 29.1 µM [cytotoxic, single point] | – | – |
| COc1cc([C@H]2OC[C@](O)(Cc3ccc(O[C@@H]4O[C@H](CO)[C@@H](O)[C@H](O)[C@H]4O)c(OC)c3)[C@@H]2CO)ccc1O | inactive | inactive | – | – |
| C[C@@H]1CC[C@]2(C(=O)O)CC[C@]3(C)C(=CCC4[C@@]5(C)C[C@@H](O)[C@H](O)[C@@](C)(CO)C5CC[C@]43C)C2[C@H]1C (stereo partly drawn) | inactive | inconclusive: 0.0709 µM [cytotoxic, partial curve, poor fit] | – | – |
| O=C(O/N=C1\c2ccccc2-c2nc3ccccc3nc21)c1ccco1 | inconclusive: 3.26 µM [cytotoxic, full curve, poor fit] | inconclusive: 5.8 µM [cytotoxic, full curve, poor fit] | – | – |
| O=[N+]([O-])c1cn2c(n1)OC[C@@H](OCc1ccc(-c3ccc(OC(F)(F)F)cc3)nc1)C2 | inconclusive: 14.6 µM [cytotoxic, partial curve, poor fit] | inconclusive: 16.4 µM [cytotoxic, single point] | – | – |
| C[C@@H]1O[C@@H](O[C@H]2[C@H](O[C@H]3CC[C@@]4(C)C(CC[C@]5(C)C4CC=C4[C@@H]6CC(C)(C)CC[C@]6(C(=O)O)CC[C@]45C)[C@]3(C)CO)OC[C@H](O)[C@@H]2O)[C@H](O)[C@H](O[C@@H]2OC[C@@H](O)[C@H](O)[C@H]2O)[C@H]1O (stereo partly drawn) | inconclusive: 6.93 µM [cytotoxic, single point] | active: 4.91 µM | – | – |
| COC1CC(OC2CCC3(C)C(=CCC4C3C(OC(C)=O)C(OC(=O)/C=C/c3ccccc3)C3(C)C(C(C)O)CCC43O)C2)OC(C)C1OC1CC(OC)C(OC2OC(C)C(OC3OC(CO)C(O)C(O)C3O)C(OC)C2O)C(C)O1 (stereo not drawn) | – | – | inactive: 69.8% [at 9.25 µM] | inactive: 71.5% [at 9.25 µM] |
| C/C=C1\[C@H](O[C@@H]2O[C@H](CO)[C@@H](O)[C@H](O)[C@H]2O)OC=C(C(=O)OCCc2ccc(O)cc2)[C@H]1CC(=O)OCCc1ccc(O)cc1 | inactive | inactive | – | – |

| SMILES | Potency [1] | Potency [2] | viability (% of control) [1] | viability, % of control [2] |
| --- | --- | --- | --- | --- |
| O=S(=O)(N[C@H]1CCCC[C@@H]1N1CCOCC1)c1ccc(Cl)cc1 | inconclusive: 11.6 µM [cytotoxic, partial curve, poor fit] | inconclusive: 29.1 µM [cytotoxic, single point] | – | – |
| CN(C)c1ccc(C(=C2C=CC(=[N+](C)C)C=C2)c2ccccc2)cc1 | inconclusive: 0.0531 µM [cytotoxic, full curve] | inconclusive: 0.0376 µM [cytotoxic, full curve] | – | – |
| O=C(/C=C/c1c(C(=O)O)[nH]c2cc(Cl)cc(Cl)c12)Nc1ccccc1 | inactive | inactive | – | – |
| C/C=C(/C)C(=O)O[C@H]1C[C@]2(C)O[C@@H]2[C@@H](OC(C)=O)[C@@]2(C)CC[C@@](O)(C(C)C)[C@H]12 | inconclusive: 16.1 µM [cytotoxic, single point] | inconclusive: 14.3 µM [cytotoxic, single point] | – | – |
| Cc1ccc(Cl)c(OCC(O)CNC(C)(C)C)c1 (stereo not drawn) | inconclusive: 0.015 µM [cytotoxic, full curve, poor fit] | inactive | – | – |
| CCC(=O)NC[C@H](Cc1ccc(OCCc2nc(-c3ccccc3)oc2C)cc1)N/C(C)=C\C(=O)c1ccc(C(F)(F)F)cc1 | active: 16.6 µM | active: 11.8 µM | – | – |
| COc1ccc(C[C@H](N)C(=O)N[C@@H]2[C@H](O)[C@H](n3cnc4c(N(C)C)ncnc43)O[C@@H]2CO)cc1 | active: 0.184 µM | active: 0.184 µM | – | – |
| C=C1C(OC(C)=O)CCC2(C)CC3(OC)OC(=O)C(C)=C3CC12 (stereo not drawn) | inconclusive: 18 µM [cytotoxic, single point] | inconclusive: 12.8 µM [cytotoxic, partial curve] | – | – |
| CC1CCC2(C)CCC3(C)C(=CCC4C5(C)CCC(O)C(C)(C(=O)O)C5CCC43C)C2C1C (stereo not drawn) | inconclusive: 11.2 µM [cytotoxic, single point] | inconclusive: 11.2 µM [cytotoxic, partial curve] | – | – |
| CC(=O)c1ccc(O[C@@H]2O[C@H](CO)[C@@H](O)[C@H](O)[C@H]2O)cc1 | inconclusive: 25.9 µM [cytotoxic, single point] | inactive | – | – |
| CCN1CC(CCN2CCOCC2)C(c2ccccc2)(c2ccccc2)C1=O (stereo not drawn) | inconclusive: 9.44 µM [cytotoxic, partial curve, poor fit] | inconclusive: 21.1 µM [cytotoxic, single point] | – | – |
| Cc1cc2c(cc1N1C(=O)c3cccc4c(CCCO)ccc(c34)C1=O)n(C)c(=O)n2C | inconclusive: 2.43 µM [cytotoxic, partial curve, poor fit] | inconclusive: 0.769 µM [cytotoxic, full curve, poor fit] | – | – |
| CC(C)CNCc1ccc(-c2ccccc2S(=O)(=O)N2CCCC2)cc1 | inconclusive: 14.6 µM [cytotoxic, partial curve] | inconclusive: 20.6 µM [cytotoxic, single point] | – | – |
| O=S(=O)(Nc1ccccc1N1CCCCC1)c1ccc(Cl)s1 | inconclusive: 20.6 µM [cytotoxic, partial curve] | inconclusive: 23.1 µM [cytotoxic, single point] | – | – |
| CCOC(=O)c1ccc(NC2CCCCC2)c(N)c1 | inconclusive: 18.4 µM [cytotoxic, single point] | inconclusive: 29.1 µM [cytotoxic, single point] | – | – |
| COc1cc(Nc2nc3ccccc3nc2NS(=O)(=O)c2ccc(NC(=O)c3ccc(OC)c(C)c3)cc2)cc(OC)c1 | inconclusive: 8.2 µM [cytotoxic, partial curve] | inconclusive: 13 µM [cytotoxic, partial curve] | – | – |
| COCCN(C(=O)c1cc(OC)c(OC)c(OC)c1)c1nc(-c2ccccc2)cs1 | inconclusive: 13 µM [cytotoxic, partial curve] | inconclusive: 11.6 µM [cytotoxic, partial curve] | – | – |
| COC(=O)CCC1(C)C(C(C)(C)O)C(O)CC2(C)Oc3c(C)c4c(c(OC)c3CC21)C(=O)OC4 (stereo not drawn) | inconclusive: 10 µM [cytotoxic, partial curve] | inconclusive: 7.96 µM [cytotoxic, partial curve] | – | – |
| COC(=O)CC[C@@H](C)[C@H]1CC[C@H]2[C@@H]3CC(=O)[C@H]4C[C@H](OC(C)=O)CC[C@]4(C)[C@H]3CC[C@]12C | inconclusive: 23.1 µM [cytotoxic, partial curve, poor fit] | inconclusive: 13 µM [cytotoxic, partial curve, poor fit] | – | – |
